According to PMC12040169 (PLOS Biology, 2025):
The other results are listed elsewhere or left out.

tested on: T1, C. trachomatis L2/434/Bu expressing GFP (CTL2-GFP); design: species or system HeLa; C. trachomatis total inclusion area by high-content imaging, normalised to DMSO; conditions: total inclusion area; 28.5 h, 10 µM; inhibitor
T1 construct: L2/434/Bu GFP intracellular growth in HeLa cells
Procedure, shortened: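 Host cell viability was gauged from Hoechst-stained nuclei counts, while chlamydial growth was taken from total inclusion area and inclusion number per well. Cells were fixed and imaged by high-content microscopy once bulk GFP and resorufin fluorescence had been measured.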

SMILES | % of control remaining
O=C(Cc1ccc(-c2ccccc2)cc1)NCc1cccnc1 [CBK262591] | 94.3414
Cc1cc(C[C@@H]2COC[C@H]2NCC(C)c2ccccc2)on1 (stereo partly shown) [CBK285145] | 73.7714
COC(=O)[C@@H](C)NC(=O)[C@@H]1CN(C(=O)NC(C)C)CCN1C(=O)C1CCCCC1 [CBK289622] | 110.689
COc1ccc(OC)c(C(C)NC(=O)C2CCN(Cc3cccc(C(F)(F)F)c3)CC2)c1 (stereo not shown) [CBK148764] | 87.0003
CCOc1cccc(-c2cn3ccnc3c(Nc3ccc(Cl)cc3)n2)c1 [CBK066505] | 105.542
COc1ccc(NC(=O)Cn2cnc3c2c(=O)n(C)c(=O)n3C)cc1Cl [CBK134216] | 98.4694
CSCCOc1cc(NC(C)C)ncn1 [CBK115889] | 80.0637
CC(=O)Nc1ccc(NCc2ncc(C(C)(C)C)o2)c(Cl)c1 [CBK306135] | 85.0657
Cc1cc(C)nc(SCC(=O)N2c3ccccc3C(C)(c3ccc(Cl)cc3)CC2(C)C)n1 (stereo not shown) [CBK073872] | 58.1353
CC(Cn1cncn1)C(=O)N1CCCCC1CCc1ccccc1 (stereo not shown) [CBK282265] | 69.918
Cc1[nH]c2cccc(C(=O)N3CCOC(C)(C(=O)NC4CCCC4)C3)c2c1C (stereo not shown) [CBK285800] | 131.842
O=c1c(-c2ccccc2)c(O)cc(-c2ccccc2)n1Cc1ccccc1 [CBK291188] | 101.075
COc1cnc(-c2cc(Cl)cc(Cl)c2)c(NC(=O)c2ccsc2)n1 [CBK145340] | 115.172
Cc1cccc(-c2csc3c(=O)[nH]c(N4CCC(C(=O)NCc5ccncc5)CC4)nc23)c1 [CBK215625] | 86.7115
Cc1c(CC(=O)O)c2c(n1Cc1ccc(F)cc1)CCCC2=O [CBK287078] | 107.126
O=C(O)C[C@@H]1CCN(C(=O)C2CCCCC2)C[C@@H]1CCN1CCCCC1 [CBK288781] | 104.972
Cc1cccc(CCNC(=O)N2CCN(Cc3ccccn3)CC2)c1 [CBK304057] | 111.631
CCCn1cc(NC(=O)C2(c3ccccc3)CCOCC2)ccc1=O [CBK304905] | 8.043
CCn1cc(NC(=O)CC2CCN(Cc3cccc(C(F)(F)F)c3)CC2)cn1 [CBK286118] | 88.9794
O=C(O)C[C@]1(C(=O)NC2CCCCCC2)CC(/C=C/c2ccccc2)=NO1 [CBK286732] | 72.8368
Cc1cccc(OCCNC(=O)CN2CCCC2Cn2cncn2)c1 (stereo not shown) [CBK305345] | 39.4408
COCC1CCCN1C(=O)c1cnn2c(C)c(Cc3ccccc3)c(C)nc12 (stereo not shown) [CBK162213] | 93.5127
